Test results from PubChem BioAssay AID1030 (National Center for Advancing Translational Sciences (NCATS), 2008).
The whole screen tested about 220,000 compounds, of which about 16,000 (7.3%) were called active. The inconclusive results got no clear call from the source; some entries with a clear call stand among them for comparison. The call rests on the fitted dose curve; in most records, active means well fitted inhibition curve with a large enough effect (not every such curve was filed as active); inconclusive means small, poorly fitted or top-dose-only effect, or another doubt; inactive means no such curve, though single readings can be large or run the other way. Potencies of inconclusive entries are left out as doubtful fits.
Potency means the concentration at half of the fitted maximal effect; tags describe the fitted curve by direction and shape.

Each compound was assayed against Aldehyde dehydrogenase 1A1 (Homo sapiens) (UniProt P00352) (assay: qHTS Assay for Inhibitors of Aldehyde Dehydrogenase 1 (ALDH1A1)). Conditions: Purified ALDH1A1, NADH fluorescence, propionaldehyde substrate; series mostly up to 75.3 µM.
Chain of UniProt P00352 (P00352 whole entry, looked up): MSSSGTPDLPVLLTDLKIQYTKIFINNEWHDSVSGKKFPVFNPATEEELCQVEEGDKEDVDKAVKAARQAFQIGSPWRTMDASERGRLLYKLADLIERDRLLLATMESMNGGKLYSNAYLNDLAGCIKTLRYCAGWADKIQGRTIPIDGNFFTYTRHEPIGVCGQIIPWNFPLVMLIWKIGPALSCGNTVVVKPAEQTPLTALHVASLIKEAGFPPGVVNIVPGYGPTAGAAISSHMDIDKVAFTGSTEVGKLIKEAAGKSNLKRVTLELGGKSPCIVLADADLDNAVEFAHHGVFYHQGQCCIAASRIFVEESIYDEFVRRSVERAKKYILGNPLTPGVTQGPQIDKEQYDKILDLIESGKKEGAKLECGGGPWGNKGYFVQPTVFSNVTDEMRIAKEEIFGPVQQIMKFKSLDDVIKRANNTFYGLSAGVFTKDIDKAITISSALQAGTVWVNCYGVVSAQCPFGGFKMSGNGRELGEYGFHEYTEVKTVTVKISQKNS
For `CCOC(=O)c1c(C)nc2sc(C(=O)Nc3ccc(C(C)=O)cc3)c(N)c2c1-c1ccc(OC)cc1`, the Potency was inconclusive [inhibitor, partial curve].
`CC(Sc1nc(-c2ccc(F)cc2)cs1)C(=O)Nc1ccc(Cl)cn1` (stereo not drawn) was tested, and the Potency was “inactive”.
`CCOC(=O)c1cc2cc(C)ccc2[nH]1` was tested, and the Potency was inconclusive [inhibitor, partial curve].
With `CC(C)CC(=O)Nc1cc2nn(-c3ccccc3)nc2cc1Cl` the Potency was inconclusive [inhibitor, full curve].
`CC/C(=N\NC(=O)COc1ccc(Br)cc1)c1ccc(OC)c(OC)c1` was tested, and the Potency was inconclusive [inhibitor, partial curve].
`Cn1c(-c2ccc(Br)o2)nc2cc(Br)ccc21` was tested, and the Potency was inconclusive [inhibitor, single point].
With `Cc1csc(NC(=O)c2ccc(C)c([N+](=O)[O-])c2)n1` the Potency was inconclusive [inhibitor, single point].
`O=C(Nc1ccccc1)N1CCC(C(=O)N(Cc2ccco2)Cc2cccs2)CC1` was tested, and the Potency was inconclusive [inhibitor, partial curve, poor fit].
In the case of `COc1cc(CNc2ccc(N3CCCC3)cc2)ccc1OCc1ccccc1`, the Potency is reported as active: 7.94 µM.
With `CCCCC(=O)NC(N1CCCCC1)C(Cl)(Cl)Cl` (stereo not drawn) the Potency was inconclusive [inhibitor, single point].
In the case of `O=C(c1cncc(Br)c1)N1CCN(c2ccc(N3CCOCC3)nn2)CC1`, the Potency is reported as inconclusive [inhibitor, single point].
For `Cc1ccccc1C(=O)N=c1c(C#N)cc2c(=O)n3cccc(C)c3nc2n1Cc1ccco1`, the Potency was inconclusive [inhibitor, partial curve].
For `CCCn1c(SCC(=O)NCc2ccc(OC)cc2)n[nH]c1=O`, the Potency was inconclusive [inhibitor, single point].
`Cn1cc(CN2CC3C[C@@H]4CC2C[C@H](C3)C4)c(-c2ccc3c(c2)OCCO3)n1` was tested, and the Potency was “inactive”.
For `CCC(C(=O)OCC(=O)Nc1ccc(Cl)c(S(=O)(=O)N(C)C)c1)c1ccccc1` (stereo not drawn), the Potency was inconclusive [inhibitor, single point].
For `Cn1c(=O)c(-c2cc(F)cc(F)c2)nc2cnc(N3CCOCC3)nc21`, the Potency was “inactive”.
For `O=C(NCc1ccco1)c1ccc(C(F)(F)F)cc1`, the Potency was “inactive”.
In the case of `CCOC(=O)COc1ccc2c(c1)C(=O)CC(C)(c1cccnc1)O2` (stereo not drawn), the Potency is reported as inconclusive [inhibitor, partial curve].
With `O=C(N/N=C/CCc1ccccc1)c1ccc(CN2c3cccc4cccc(c34)S2(=O)=O)cc1` the Potency was inconclusive [inhibitor, partial curve].
In the case of `Cc1ccc(S(=O)(=O)N2CCC[C@H]2C(=O)OC(C)C(=O)Nc2ncc(Cl)cc2Cl)cc1` (stereo partly drawn), the Potency is reported as “inactive”.
`O=C(c1ccc(=O)oc1)N1CCN(c2ccc(F)cc2)CC1` was tested, and the Potency was inconclusive [inhibitor, single point].
In the case of `O=C(NC(=S)Nc1ccc(S(=O)(=O)NC2CCCCC2)cc1)c1cccs1`, the Potency is reported as “inactive”.
With `COc1ccc(CNCc2cn(-c3cccc(F)c3)nc2-c2ccc(C)o2)cc1` the Potency was inconclusive [inhibitor, partial curve].
With `CC(C)Oc1cccc(-c2cc(C(=O)N3CCN(c4ncccn4)CC3)c3ccccc3n2)c1` the Potency was inconclusive [inhibitor, single point].
In the case of `Cc1cc(-c2ccccc2)nc2cc(C(=O)N(Cc3ccccc3)Cc3ccccc3)nn12`, the Potency is reported as inconclusive [inhibitor, partial curve].
In the case of `O=C(NCc1ccncc1)c1cc(C(=O)C2CC2)c[nH]1`, the Potency is reported as “inactive”.
With `CC(C)(C)c1ccc(/C=C/C(=O)N2CCCCC2)cc1` the Potency was inconclusive [inhibitor, single point].
In the case of `C(=N\n1cnnc1)/c1ccc(N2CCOCC2)s1`, the Potency is reported as inconclusive [inhibitor, partial curve].
For `Cn1c(SCC(=O)N2CCCc3ccccc32)nc2ccccc2c1=O`, the Potency was inconclusive [inhibitor, single point].
`Cn1nccc1C(=O)N1CCCC(C(=O)c2cccc3ccccc23)C1` (stereo not drawn) was tested, and the Potency was inconclusive [inhibitor, partial curve].
In the case of `O=C(Nc1ccc(F)cc1)c1cc(-c2ccccc2)no1`, the Potency is reported as inconclusive [inhibitor, single point].
With `COc1cc(NC(=O)c2nnn(Cc3ccc(SC)cc3)c2N)cc(OC)c1` the Potency was active: 7.94 µM.
In the case of `COC(=O)CSc1nc(-c2cccs2)ccc1C#N`, the Potency is reported as inconclusive [inhibitor, partial curve].
With `N#CCSc1nnc(COc2cccc3ccccc23)n1-c1ccccc1` the Potency was inconclusive [inhibitor, single point].
In the case of `COc1ccc(C(=O)/C=C/C(=O)N(CC(=O)NC2CCCCC2)Cc2cccs2)c(O)c1`, the Potency is reported as inconclusive [inhibitor, partial curve].
For `CC(C)OCCCn1c(=S)[nH]c2ccc(N3CCOCC3)cc2c1=O`, the Potency was inconclusive [inhibitor, partial curve].
With `CCOC(=O)c1c(C)[nH]c(C2=NNC(=Nc3cccc(Cl)c3)SC2)c1C` the Potency was inconclusive [inhibitor, single point].
With `CCN(c1ccc(NS(=O)(=O)c2cc(Cl)ccc2Cl)cc1)C(C)C` the Potency was inconclusive [inhibitor, single point].
`N#Cc1c2n(c(=S)n(-c3ccccc3[N+](=O)[O-])c1=O)CCCCC2` was tested, and the Potency was inconclusive [inhibitor, single point].
With `Cn1nnnc1SCc1c(F)cccc1F` the Potency was inconclusive [inhibitor, single point].
For `COc1cccc(Cn2cccc(NC(=O)NC3CCCCC3)c2=O)c1`, the Potency was inconclusive [inhibitor, partial curve].
`CCOC(=O)c1cc(NC(=O)Nc2ccccc2Cl)c(C)nc1C` was tested, and the Potency was “inactive”.
With `CCCn1ncc(CN2CCC(N3CCC(C(=O)N4CCOCC4)CC3)CC2)c1C` the Potency was “inactive”.
`COC(=O)Cn1nc(-c2ccccc2)c2ccccc21` was tested, and the Potency was inconclusive [inhibitor, partial curve].
With `Cc1cccc(OCc2nc3c4c(ncn3n2)-c2ccccc2CC42CCCC2)c1` the Potency was “inactive”.
In the case of `O=C(CSc1nnc(-c2cccnc2)n1-c1ccc(SC(F)F)cc1)N1CCCc2ccccc21`, the Potency is reported as active: 20 µM.
In the case of `Cc1c(C(=O)Nc2ccc3c(c2)CCC3)cccc1[N+](=O)[O-]`, the Potency is reported as active: 9.46 µM.
In the case of `CCOc1ccc(NCC(=O)c2ccc(C)cc2)cc1`, the Potency is reported as active: 3.16 µM.
In the case of `CCN(CC)S(=O)(=O)c1ccc(N/N=C/c2ccc(O)cc2)nc1`, the Potency is reported as inconclusive [inhibitor, single point].
`CCOC(=O)C1CCN(S(=O)(=O)c2cccc(-c3csc(C)n3)c2)CC1` was tested, and the Potency was inconclusive [inhibitor, single point].
For `COC(=O)COc1ccc(C2Nc3c(Cl)ccc(C(=O)O)c3C3C=CCC32)cc1` (stereo not drawn), the Potency was inconclusive [inhibitor, single point].
For `CN1C(=O)c2cccc3c(S(=O)(=O)Nc4ccccn4)ccc1c23`, the Potency was inconclusive [inhibitor, partial curve].
With `COCCNC(=O)CN(CCc1ccccc1)S(=O)(=O)c1ccc(OC)cc1` the Potency was inconclusive [inhibitor, partial curve].
For `CNc1nc(C)c(C#N)c(-c2ccccc2)c1C(C)=O`, the Potency was inconclusive [inhibitor, single point].
For `FC(F)(F)c1cccc(N2CCc3cn[nH]c32)c1`, the Potency was inconclusive [inhibitor, single point].
In the case of `CCCN(CCC)C(=O)CC(c1ccccc1)C1CCOC(C)(C)C1` (stereo not drawn), the Potency is reported as inconclusive [inhibitor, single point].
For `COC(=O)c1ccc2c(c1)NC(=O)CS2`, the Potency was inconclusive [inhibitor, single point].
`O=S(=O)(c1ccc2oc(=S)[nH]c2c1)N1CCCCC1` was tested, and the Potency was active: 20 µM.
For `Cc1ccc(NC(=O)Cn2cc(S(=O)(=O)c3ccc(F)cc3)c(=O)c3cc(F)ccc32)cc1`, the Potency was inconclusive [inhibitor, partial curve].
In the case of `COc1ccc(Cl)cc1NC(=O)CN(C)CC(=O)Nc1ccccc1-c1ccccc1`, the Potency is reported as inconclusive [inhibitor, partial curve].
`CCOc1ccc(-c2nnc(SCc3nnc(-c4ccccc4)o3)n2-c2ccccc2F)cc1` was tested, and the Potency was “inactive”.
With `COc1cccc(N=C2C(=O)N3CCCc4cccc2c43)c1` the Potency was active: 0.158 µM.
With `CCOc1ccc(NC(=O)c2nccnc2CO)cc1` the Potency was inconclusive [inhibitor, single point].
With `CCOC(=O)c1c(C)nc2sc(C(=O)Nc3ccc(OC)cc3)c(N)c2c1-c1ccc(OC)cc1` the Potency was inconclusive [inhibitor, partial curve].
`COc1ccc(CCN(Cc2ccccn2)C(=S)Nc2cccc(SC)c2)cc1OC` was tested, and the Potency was inconclusive [inhibitor, partial curve].
`COc1ccc(CNc2ccc3cn[nH]c3c2)c(OC)c1OC` was tested, and the Potency was inconclusive [inhibitor, single point].
`Cc1ccc(CNC(=O)c2ccc(-n3cccc3)cc2)cc1` was tested, and the Potency was inconclusive [inhibitor, single point].
For `O=C(COc1ccccc1Br)NCc1ccco1`, the Potency was inconclusive [inhibitor, single point].
